# Reference: PubChem BioAssay (NCATS)
# Inconclusive results, whose numbers are uncertain, are shown with a selection of clear calls. For some assays here: No potency is given beside an inconclusive call; the fits are too rough. Calls of active or inactive are those of the source. Calls follow the shape of the dose curve; as a rule, active = well fitted curve in the direction sought with a large enough effect; inconclusive = small, poorly fitted or top-dose-only effect, or another doubt; inactive = no such curve, though single readings can be large; an effect the other way counts as inactive or inconclusive.
# Molecular target: Rap guanine nucleotide exchange factor 3 (Homo sapiens) (UniProt O95398)
# UniProt O95398, sequence (O95398 whole entry, looked up): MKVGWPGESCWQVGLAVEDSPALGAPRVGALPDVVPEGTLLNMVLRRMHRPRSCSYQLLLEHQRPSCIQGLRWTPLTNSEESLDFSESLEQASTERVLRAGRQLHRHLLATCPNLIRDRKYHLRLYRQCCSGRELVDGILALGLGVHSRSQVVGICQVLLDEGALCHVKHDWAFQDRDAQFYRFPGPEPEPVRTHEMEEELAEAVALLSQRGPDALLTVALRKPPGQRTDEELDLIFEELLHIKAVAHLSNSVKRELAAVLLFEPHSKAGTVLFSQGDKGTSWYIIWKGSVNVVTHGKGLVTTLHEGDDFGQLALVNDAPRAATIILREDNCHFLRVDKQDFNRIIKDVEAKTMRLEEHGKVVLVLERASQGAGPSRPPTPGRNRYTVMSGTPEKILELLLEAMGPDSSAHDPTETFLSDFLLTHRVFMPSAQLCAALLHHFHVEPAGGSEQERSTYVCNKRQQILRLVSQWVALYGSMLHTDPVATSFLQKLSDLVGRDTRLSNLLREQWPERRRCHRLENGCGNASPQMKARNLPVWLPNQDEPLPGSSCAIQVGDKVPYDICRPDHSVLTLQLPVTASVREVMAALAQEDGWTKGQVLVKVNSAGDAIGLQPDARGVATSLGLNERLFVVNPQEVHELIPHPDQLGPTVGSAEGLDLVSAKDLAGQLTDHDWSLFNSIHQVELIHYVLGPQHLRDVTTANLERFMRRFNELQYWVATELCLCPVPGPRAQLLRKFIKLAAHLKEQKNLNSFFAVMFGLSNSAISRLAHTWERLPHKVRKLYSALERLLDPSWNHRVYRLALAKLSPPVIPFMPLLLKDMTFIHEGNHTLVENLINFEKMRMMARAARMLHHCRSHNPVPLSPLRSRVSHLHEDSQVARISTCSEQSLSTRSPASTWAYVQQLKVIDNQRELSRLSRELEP
# Experiment: Confirmatory qHTS for antagonist of cAMP-regulated guanine nucleotide exchange factor 3 (EPAC1) (AID 1645880); also: nearly all actives have a fitted effect of over 55% in size
# Settings: EPAC1 Rap1B-BODIPY-GDP exchange, fluorescence; series mostly up to 115 µM
# How it was run: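 Nucleotide exchange uses 100 nM EPAC1, 250 nM RAP1B-BODIPY-GDP and 50 uM GDP, with compounds in a concentration-titration series. After 5 min at room temperature, fluorescence (480 nm ex/540 nm em) is read every 5 min for 30 min. Data are normalized to control ATA and DMSO.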
# Potency is read from the fitted curve at half-maximal effect; tags tell the direction and shape of the fitted curve.
row,SMILES,Potency
1,O=C(c1ccco1)N1CCC2(CC1)CN(c1cccc(-c3ccccc3)c1)C2,inactive
2,O=C(c1cccc(F)c1)N1CCC[C@@]2(CCN(C(c3ccccc3)c3ccccc3)C2)C1,inactive
3,c1ccc(CNc2ccnc(-c3ccc4c(c3)OCO4)n2)cc1,inactive
4,O=c1c(-c2cccs2)nc2cnc(Nc3ccccc3)nc2n1C[C@H]1CCCO1,inactive
5,CN(C)c1ncc2ncc(=O)n(Cc3cccs3)c2n1,"inconclusive [inhibitor, single point]"
6,COc1ccc(C(=O)N2CCC3(CC2)CN(c2ccncc2)C3)cc1,inactive
7,COc1ccc(-n2c(=O)c(-c3ccc(Cl)cc3)nc3cnc(N(C)C)nc32)cc1,inactive
8,O=C(c1cnccn1)N1CCC[C@@]2(CCN(c3cccc(-c4ccccc4)c3)C2)C1,inactive
9,COc1ccc(CNc2nc(-c3cccnc3)nc3ccccc23)c(OC)c1,inactive

# Molecular target: Rap guanine nucleotide exchange factor 3 (Homo sapiens) (UniProt O95398)
# Experiment: Confirmatory qHTS for agonist of cAMP-regulated guanine nucleotide exchange factor 3 (EPAC1) (AID 1645881); also: nearly all actives have a fitted effect of over 75% in size;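 as to activation: EPAC1 catalysed release of BODIPY-GDP from Rap1B seen as fluorescence loss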
# Settings: EPAC1 Rap1B BODIPY-GDP exchange fluorescence; activation: at 154 µM (top of the series), 100% = cAMP control response
row,SMILES,Potency
1,c1ccc(CNc2ccnc(-c3ccc4c(c3)OCO4)n2)cc1,"inconclusive [activator, partial curve, poor fit]"
2,COc1cccc(-c2nc(Nc3ccncc3)c3ccccc3n2)c1,"inconclusive [activator, partial curve, poor fit]"
3,CC(=O)N1CCC2(CCCN(c3ccc(-c4ccccc4)cc3)C2)CC1,"inconclusive [activator, partial curve, poor fit]"
4,O=C(c1cnccn1)N1CCC[C@@]2(CCN(c3cccc(-c4ccccc4)c3)C2)C1,inactive
5,COc1ccc(CNc2nc(-c3cccnc3)nc3ccccc23)c(OC)c1,inactive
6,CCNc1ncc2nc(-c3cccs3)c(=O)n(CCC#N)c2n1,"inconclusive [activator, partial curve, poor fit]"

# Molecular target: Rap guanine nucleotide exchange factor 4 (Homo sapiens) (UniProt Q8WZA2)
# UniProt Q8WZA2, sequence (Q8WZA2 whole entry, looked up): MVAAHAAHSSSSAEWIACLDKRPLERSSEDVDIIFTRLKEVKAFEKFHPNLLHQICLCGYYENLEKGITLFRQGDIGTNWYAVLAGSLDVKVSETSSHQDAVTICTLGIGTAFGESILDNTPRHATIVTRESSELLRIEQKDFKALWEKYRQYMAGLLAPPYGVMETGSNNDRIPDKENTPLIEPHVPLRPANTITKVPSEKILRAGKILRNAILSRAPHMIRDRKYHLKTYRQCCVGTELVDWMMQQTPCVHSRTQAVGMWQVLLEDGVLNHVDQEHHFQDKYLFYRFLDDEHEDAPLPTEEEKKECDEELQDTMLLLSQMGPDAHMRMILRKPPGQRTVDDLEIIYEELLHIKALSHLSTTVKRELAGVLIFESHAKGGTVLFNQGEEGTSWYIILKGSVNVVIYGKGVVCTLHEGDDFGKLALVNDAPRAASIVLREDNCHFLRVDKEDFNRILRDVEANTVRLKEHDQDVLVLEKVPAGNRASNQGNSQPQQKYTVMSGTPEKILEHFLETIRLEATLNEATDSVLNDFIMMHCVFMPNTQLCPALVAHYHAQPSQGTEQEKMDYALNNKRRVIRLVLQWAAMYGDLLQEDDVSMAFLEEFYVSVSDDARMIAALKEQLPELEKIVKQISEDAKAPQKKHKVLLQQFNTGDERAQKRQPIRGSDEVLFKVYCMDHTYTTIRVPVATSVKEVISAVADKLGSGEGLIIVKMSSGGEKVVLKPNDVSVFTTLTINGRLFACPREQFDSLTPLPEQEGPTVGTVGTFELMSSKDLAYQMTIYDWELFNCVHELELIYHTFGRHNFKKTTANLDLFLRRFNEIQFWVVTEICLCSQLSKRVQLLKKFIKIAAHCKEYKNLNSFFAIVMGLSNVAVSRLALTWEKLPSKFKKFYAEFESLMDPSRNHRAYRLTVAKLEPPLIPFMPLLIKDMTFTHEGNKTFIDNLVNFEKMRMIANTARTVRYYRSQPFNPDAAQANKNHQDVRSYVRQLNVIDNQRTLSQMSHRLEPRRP
# Experiment: Confirmatory qHTS for agonist of cAMP-regulated guanine nucleotide exchange factor 4 (EPAC2) (AID 1645884);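 also: nucleotide exchange releases bodipy-GDP from Rap1 and this lowers its fluorescence; nearly all actives have a fitted effect of over 65% in size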
# Settings: EPAC2 GEF activity, Rap1B-BODIPY-GDP fluorescence; activation: at 154 µM (top of the series), percent relative to cAMP agonist control
row,SMILES,Potency
1,O=C(c1cccc(F)c1)N1CCC[C@@]2(CCN(C(c3ccccc3)c3ccccc3)C2)C1,inactive
2,c1ccc(CNc2ccnc(-c3ccc4c(c3)OCO4)n2)cc1,"inconclusive [activator, partial curve]"
3,O=c1c(-c2cccs2)nc2cnc(Nc3ccccc3)nc2n1C[C@H]1CCCO1,"inconclusive [activator, single point]"
4,COc1cccc(-c2nc(Nc3ccncc3)c3ccccc3n2)c1,"inconclusive [activator, partial curve, poor fit]"
5,CC(=O)N1CCC2(CCCN(c3ccc(-c4ccccc4)cc3)C2)CC1,"inconclusive [activator, partial curve, poor fit]"
6,CCNc1ncc2nc(-c3cccs3)c(=O)n(CCC#N)c2n1,"inconclusive [activator, partial curve, poor fit]"

# Molecular target: Rap guanine nucleotide exchange factor 4 (Homo sapiens) (UniProt Q8WZA2)
# Experiment: Confirmatory qHTS for antagonist of cAMP-regulated guanine nucleotide exchange factor 4 (EPAC2) (AID 1645885); also: nearly all actives have a fitted effect of over 25% in size
# Settings: EPAC2 Rap1B-BODIPY-GDP exchange fluorescence, biochemical; series mostly up to 114 µM
row,SMILES,Potency
1,O=C(c1ccco1)N1CCC2(CC1)CN(c1cccc(-c3ccccc3)c1)C2,inactive
2,c1ccc(CNc2ccnc(-c3ccc4c(c3)OCO4)n2)cc1,inactive
3,CN(C)c1ncc2ncc(=O)n(Cc3cccs3)c2n1,active: 39.3 µM
4,COc1ccc(C(=O)N2CCC3(CC2)CN(c2ccncc2)C3)cc1,inactive
5,CN(C)c1ncc2nc(-c3ccc(F)cc3)c(=O)n(-c3ccccc3)c2n1,inactive
